From the BET-seq Pho4 binding data (Le et al. 2018)
The other results are listed elsewhere or left out. These are noisy estimates, calculated here from bound and input reads.

target: T1, Pho4 (S. cerevisiae) (UniProt P07270); experiment: relative binding free energy (BET-seq); higher = weaker binding; settings: reference: library average
T1 sequence: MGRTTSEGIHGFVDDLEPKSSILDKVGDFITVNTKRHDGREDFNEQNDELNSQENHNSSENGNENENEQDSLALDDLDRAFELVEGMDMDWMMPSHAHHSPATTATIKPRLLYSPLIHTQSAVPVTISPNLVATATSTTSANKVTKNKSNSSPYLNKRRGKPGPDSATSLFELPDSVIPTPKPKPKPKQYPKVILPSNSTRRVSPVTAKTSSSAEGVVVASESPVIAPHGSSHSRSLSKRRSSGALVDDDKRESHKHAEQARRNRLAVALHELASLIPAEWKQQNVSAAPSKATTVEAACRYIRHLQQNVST

Sequence | relative binding free energy
TCTGCCACGTGGGGCG | -0.18 kcal/mol
TTGATCACGTGTTGCG | 0 kcal/mol
TGGGGCACGTGTCAGG | -0.09 kcal/mol
AAGAGCACGTGGGGGC | -0.19 kcal/mol
ATTAGCACGTGCAAGT | -0.02 kcal/mol
CGTGTCACGTGAGGTC | 0.23 kcal/mol
TGTATCACGTGAAGGC | 0.41 kcal/mol
ATTTACACGTGGAATT | 0.22 kcal/mol
ATGATCACGTGAAGAT | 0.27 kcal/mol
GTGAACACGTGGGGTG | -0.09 kcal/mol
TAGTGCACGTGGGTGA | -0.23 kcal/mol
TGGGGCACGTGACATA | 0 kcal/mol
TTTAACACGTGTCGGG | 0.04 kcal/mol
CTTAGCACGTGTTGTT | -0.05 kcal/mol
TGTTTCACGTGTTCTG | 0.29 kcal/mol
ATATGCACGTGTTGAG | -0.05 kcal/mol
TTGGACACGTGTCCGG | 0.08 kcal/mol
TGCTCCACGTGTGTCT | 0.31 kcal/mol
GGAGTCACGTGCTGTT | -0.02 kcal/mol
TTGTACACGTGGGGCC | -0.21 kcal/mol
TTGTGCACGTGGGCCG | -0.17 kcal/mol
TATGTCACGTGGCGTA | 0.1 kcal/mol
CGTGGCACGTGGGGTT | -0.27 kcal/mol
GGGTGCACGTGAATAG | 0.38 kcal/mol
TGGATCACGTGTGCTA | 0.02 kcal/mol

Sequence | relative binding free energy
GATTACACGTGGTGTA | 0.06 kcal/mol
GTACGCACGTGGGCGG | -0.43 kcal/mol
GAGTGCACGTGGGATA | 0.1 kcal/mol
GGGTTCACGTGCCGTG | 0.32 kcal/mol
CGGATCACGTGGCTGG | 0.07 kcal/mol
ATTGTCACGTGGATTG | 0.14 kcal/mol
TTGGTCACGTGTGCCT | 0.09 kcal/mol
TGGGACACGTGGTGAG | -0.11 kcal/mol
TGCTGCACGTGATAGG | -0.06 kcal/mol
GAGCTCACGTGCGTGG | 0.18 kcal/mol
TAGATCACGTGTTGTC | 0.22 kcal/mol
GTTCGCACGTGGTTAG | -0.16 kcal/mol
TGAATCACGTGTAGTG | 0.22 kcal/mol
TTGTCCACGTGCTGTT | 0 kcal/mol
GCGAGCACGTGAGGGT | 0.13 kcal/mol
ATTCGCACGTGATGTT | 0.04 kcal/mol
CGAGTCACGTGAGGGA | 0.14 kcal/mol
AAGCTCACGTGGAGAG | 0.38 kcal/mol
TATAGCACGTGATCGG | 0.02 kcal/mol
GTGAGCACGTGATTAT | 0.01 kcal/mol
TCGGGCACGTGAGGGT | 0.05 kcal/mol
GATGACACGTGAGCTT | 0.59 kcal/mol
ACGTTCACGTGGTGTG | 0.05 kcal/mol
GTCAGCACGTGGTGGG | -0.08 kcal/mol
ATTATCACGTGTTGCG | 0.09 kcal/mol

Sequence | relative binding free energy
TTTAACACGTGTTGGT | 0.05 kcal/mol
GTGTGCACGTGATGGG | 0.24 kcal/mol
CTTGGCACGTGGATAT | -0.11 kcal/mol
GGTTACACGTGTTGCG | 0.19 kcal/mol
AGGGACACGTGTATTG | -0.11 kcal/mol
GTTAGCACGTGGCAGT | 0.07 kcal/mol
TGTTTCACGTGTATAC | 0.13 kcal/mol
CAAGTCACGTGCGGGT | 0.07 kcal/mol
AGGTTCACGTGTCATT | 0.23 kcal/mol
CGATTCACGTGGTGGG | 0.23 kcal/mol
AAGTTCACGTGGTGCA | 0.19 kcal/mol
CAAGTCACGTGTGTTT | 0.03 kcal/mol
GTCAGCACGTGATGTT | 0.17 kcal/mol
TTCGGCACGTGGCGGG | -0.14 kcal/mol
CACTTCACGTGGGGGA | 0.3 kcal/mol
TTTGGCACGTGAATTT | 0.15 kcal/mol
GGTGCCACGTGTCGGT | -0.02 kcal/mol
AGTTACACGTGATAAG | 0.18 kcal/mol
GGTATCACGTGGTGTG | 0.17 kcal/mol
TATGTCACGTGTGGCG | 0.05 kcal/mol
ATAGGCACGTGGTGTG | -0.24 kcal/mol
TGTGTCACGTGGGGGC | 0 kcal/mol
AGAGTCACGTGGATGT | 0.17 kcal/mol
ATTGCCACGTGGTGGA | -0.12 kcal/mol
TGGTTCACGTGTTTTT | 0.32 kcal/mol

Sequence | relative binding free energy
GGTGGCACGTGACGTA | 0.08 kcal/mol
ACGGGCACGTGCTGGA | -0.16 kcal/mol
GATTTCACGTGTCAGA | 0.57 kcal/mol
CCTTTCACGTGGTATT | 0.18 kcal/mol
GCAGACACGTGTTTGT | 0.03 kcal/mol
GTTAGCACGTGTGGAC | -0.03 kcal/mol
GGGGTCACGTGAATAG | 0.28 kcal/mol
GTAGGCACGTGTTCAT | 0.01 kcal/mol
GGTTTCACGTGAGTTC | 0.34 kcal/mol
AGAGACACGTGGGATG | -0.2 kcal/mol
AAAGTCACGTGACGGG | 0.2 kcal/mol
TGTTTCACGTGGACAT | 0.27 kcal/mol
ACAAGCACGTGAGTTG | 0.18 kcal/mol
CGCCGCACGTGGGTTG | -0.2 kcal/mol
AAGTACACGTGGTGAG | 0.05 kcal/mol
TTTCGCACGTGATGAT | 0.03 kcal/mol
GGATGCACGTGGTAGC | 0 kcal/mol
TTCATCACGTGTGGCG | 0.14 kcal/mol
TGTTACACGTGATATG | 0.16 kcal/mol
ATGGTCACGTGCTATG | -0.04 kcal/mol
TTTAACACGTGCTAGG | -0.15 kcal/mol
GTTTACACGTGGAGGA | 0.21 kcal/mol
GGATTCACGTGGGCAT | 0.18 kcal/mol
CCGGACACGTGTTGGG | -0.01 kcal/mol
TGATGCACGTGGTATT | -0.15 kcal/mol

Sequence | relative binding free energy
TGTCGCACGTGAAGGA | 0.16 kcal/mol
ATGGTCACGTGAAAAG | 0.4 kcal/mol
AGCTTCACGTGTTGTG | 0.05 kcal/mol
TGAGGCACGTGAAGAG | 0.21 kcal/mol
GGAATCACGTGGTGCG | 0.03 kcal/mol
TGTTGCACGTGTGCCG | -0.12 kcal/mol
AGTAACACGTGGTCGG | -0.12 kcal/mol
AAGGTCACGTGCGGAG | 0.07 kcal/mol
GTGGGCACGTGTGGGT | 0.06 kcal/mol
TGTAGCACGTGTGTCT | -0.13 kcal/mol
CGTTTCACGTGACGGT | 0.27 kcal/mol
GCTTTCACGTGTAGTA | 0.25 kcal/mol
TCTGTCACGTGAGATT | 0.34 kcal/mol
TGTAACACGTGCGCGT | -0.08 kcal/mol
TGGATCACGTGTATCT | 0.22 kcal/mol
CTTCGCACGTGGGTGT | -0.32 kcal/mol
TGGATCACGTGGGGTG | 0.05 kcal/mol
GCATTCACGTGGTGTT | 0.29 kcal/mol
CTGAGCACGTGGGTTG | -0.13 kcal/mol
ATGGGCACGTGGTTGA | -0.13 kcal/mol
GTGGACACGTGTGAGA | 0.19 kcal/mol
TTCCGCACGTGGTGTT | -0.2 kcal/mol
TTGATCACGTGATAGT | 0.18 kcal/mol
TAACGCACGTGGGTTT | -0.37 kcal/mol
GTCCTCACGTGAGGGG | 0.28 kcal/mol

Sequence | relative binding free energy
TTTTACACGTGTTATA | 0.01 kcal/mol
GTTCCCACGTGTTGGT | 0.02 kcal/mol
ATGCGCACGTGTGGCT | -0.04 kcal/mol
GTGGACACGTGAGGCC | 0.41 kcal/mol
TTTATCACGTGGACTG | 0.22 kcal/mol
GAATGCACGTGTCTTG | 0.02 kcal/mol
ACGGGCACGTGCTTGT | -0.07 kcal/mol
TGGAGCACGTGAGCTG | 0.07 kcal/mol
TCGTGCACGTGCGGAG | -0.1 kcal/mol
GTATTCACGTGAGGAA | 0.39 kcal/mol
GTTTACACGTGGATGG | 0.23 kcal/mol
TGTGACACGTGACGTA | 0.1 kcal/mol
TATTGCACGTGGTGTA | -0.05 kcal/mol
GGGCCCACGTGTGTTG | -0.04 kcal/mol
TAATGCACGTGAGGAA | 0.28 kcal/mol
AGTACCACGTGGTGTT | -0.27 kcal/mol
TACAACACGTGGTGTG | -0.16 kcal/mol
ATGTGCACGTGTCTCG | -0.04 kcal/mol
CTTGTCACGTGGTATG | 0 kcal/mol
GTATGCACGTGTTGAG | 0.03 kcal/mol
TAGGTCACGTGAAGGT | 0.23 kcal/mol
